± gives the standard deviation of the averaged measurements. The list shows a part of the results.

This test relates to PfAP2-LT AP2 domain (GST-tagged). Kind of test: gcPBM binding intensity (ln(normalized median fluorescence intensity)); higher = stronger DNA binding. An outline of the steps: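 Each value is the highest Masliner-normalised natural-log median intensity across replicate spots of either orientation of a probe. The probes were primer-extended double-stranded 36-bp intergenic genomic sequences on an Agilent 4 × 180k array, alongside negative controls, exposed for 1 h to GST-tagged P. falciparum DNA-binding domains expressed in E. coli. Bound protein was picked up with Alexa488 anti-GST antibody and scanned at 488 nm.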
“ATAATATTTAGGTGTGCACACAAACATACATATATA [CACACA_site9120]”: the “gcPBM binding intensity (ln)” value came out at 9.62 ± 0.42.
With “ATTATTTTTAAAAATTGTACAGTATAAGAGAGAAAT [XGTACX_site7094]”, the “gcPBM binding intensity (ln)” value came out at 8.62 ± 0.35.
For “TATTGTAAAAAGATTACACACGTTCTATATACTTTT [CACACA_site5379]” the value was 8.93 ± 0.44; for “AATAAAAAAATATATTGTACTAATAATTATATGTTT [XGTACX_site2246]”, 8.53 ± 0.46; for “CCAACATGCAGACGCACACACAAAAAAAGCATGCAT [CACACA_site74]”, 9.54 ± 0.4.
For the sequence “AATAATATATATATTACACACTAATTGTATTATATA [CACACA_site448]”, the “gcPBM binding intensity (ln)” value was found to be 8.79 ± 0.4.
The value for “TAACAATATCTAGATACACACACATATCTCTCAATC [CACACA_site8122]” was 9.27 ± 0.3; that for “TTAATACCCGGACACACACACACAAAATAAAATACA [CACACA_site4296]” was 9.85 ± 0.27; that for “ATTTATTTATTTAGCTGTACATTTATACAGAACGAT [XGTACX_site3336]” was 8.61 ± 0.34.
The value for “AAAATGAATAAAAATACACACATATATGTTATTCTC [CACACA_site2671]” was 9.03 ± 0.42; that for “AAATTGAGACAACAGGTGCATATAAATATACAGTGT [GTGCAC_site9634]” was 9.18 ± 0.44; that for “AATAAAAATTCAAGTTGTACTTTTTTAAAAATACAA [XGTACX_site3949]” was 8.23 ± 0.59.
The value for AATTTTTGTTACAAGATGCACTTAATTTTTCTAAAT was 8.51 ± 0.42; that for “TATTCATTAAACCATACACACATAATTTTTTTATAA [CACACA_site4618]” was 8.71 ± 0.35; that for “ATATATTATATAAAAAGTACTAAAATAGTAAGATGT [XGTACX_site7493]” was 9.14 ± 0.53.
As to “AATGATTTTAAATGAACATAATTTATATTCATAACA [GTGCAC_negctrl_site256]”, the “gcPBM binding intensity (ln)” value stood at 8.27 ± 0.47.
The value for “GTGTGCCAAATTAGCACACACATATATACATGAATT [CACACA_site7346]” was 9.74 ± 0.29; that for “TACCAAAAAAAAAAAATAATAATAAAAAAAAAAAAA [TGCATGCA_negctrl_site11]” was 8.28 ± 0.51.
As to “AACGAAGCATAAAATGTTATGTATATATATAAATAT [TGCATGCA_negctrl_site304]”, the “gcPBM binding intensity (ln)” value was 8.91 ± 0.49.
In the case of “ATCATTTTGTGTTCAAGTACATAATGTTTTACACAA [XGTACX_site3565]”, the “gcPBM binding intensity (ln)” value is 8.91 ± 0.3.
For “CATACATTATAAGATACATGCATATATCTGAACATA [TGCATGCA_site797]” the value was 8.88 ± 0.46; for “ATGTGGAAATAGAGCACACATATATATAATATATAT [CACACA_site884]”, 9.2 ± 0.39.
For the sequence “GCAAAACATTTTTAAAATAAAAATAATAAAATATAT [CACACA_negctrl_site219]”, the “gcPBM binding intensity (ln)” value came out at 8.49 ± 0.45.
The value for “ACATTGAACAAAATAGTAAGCACATATATATATATA [GTGCAC_negctrl_site679]” was 9.69 ± 0.39.
The value for “TGATTCATTGATAAGGGTACATTTATAATTATGATA [XGTACX_site6319]” was 8.48 ± 0.34; that for “ACGTATCAATTTATTGGTACACATAAATATATATAT [XGTACX_site5556]” was 8.83 ± 0.35; that for “ACACATAATATAAAGGTGCTATATTGTATTCATTTT [GTGCAC_site9457]” was 8.95 ± 0.47.
On to “TGCAAAAAAAAAAAAAAAAAATATATGGAAATATAT [GTGCAC_negctrl_site257]”, for which the “gcPBM binding intensity (ln)” value amounted to 8.41 ± 0.5.
For “AAACATATATTAAGCACACACAAACAAAAAAACAAA [CACACA_site2549]” the value was 9.59 ± 0.61.
For “TTTTCATACACTGCTAGTATATACTACCACTGACAT [GTGCAC_negctrl_site514]” the value was 9.06 ± 0.41.
The value for “TGTTTGAATATAATCACACATTTATATAAAAAGTTA [CACACA_site5237]” was 8.39 ± 0.32; that for “TCTTTTTGCATGTGTGTGCGCACAAAATACACAAAA [GTGCAC_site9718]” was 9.39 ± 0.3; that for “AAAATATAGTAACACATACACACATATATATTTATA [CACACA_site2504]” was 9.19 ± 0.38.
As for “AAATTGAAATATTCCTGTACACATTTTGAAAACTTA [XGTACX_site6101]”, the “gcPBM binding intensity (ln)” value worked out at 8.45 ± 0.43.
For “TTGTTATGTTTTATTTGTACGTAGGTTTCTATCAAA [XGTACX_site7636]” the value was 8.79 ± 0.52.
The value for “TATTAAACTAAATGTAGTACATACACAAAAGAAACC [XGTACX_site606]” was 9.06 ± 0.34.
For “AAAAAATATAAATATGTAAAAAGAGAAAAAAAAAAG [GTGCAC_negctrl_site9]” the value was 8.63 ± 0.57; for “TATAAACATAAAACCAGTACATATATATTTTTCTTC [XGTACX_site212]”, 8.71 ± 0.45.
Take “ATATTTAATTCATCATGTACACAAATAAGAAACAAA [XGTACX_site8076]”: the “gcPBM binding intensity (ln)” value came out at 8.79 ± 0.48.
The value for “TGAAAATGGGAACCGTGTACAGGGCAGTTATAGGGG [XGTACX_site2950]” was 9.29 ± 0.23; that for “TTATGAAAATATTTTTTTCGTTTGATGTATATGTTT [CACACA_negctrl_site1556]” was 8.7 ± 0.57; that for “TAAAAAATTAAGCAACGTACAAATGAAAAGTATAAT [XGTACX_site1058]” was 9.04 ± 0.53.
The value for “TGATAACCAAAAAGGGGTACATACACAAAAAAATAC [XGTACX_site1254]” was 9.14 ± 0.56; that for “TACTTATTAGACTATTGTACATACATTATTAATATT [XGTACX_site7849]” was 8.86 ± 0.42; that for “AACAACATTTGATAAACACACAGAAGTATAAATATA [CACACA_site5327]” was 9.04 ± 0.47.
Take “TACGTATTATAAATATGTACATATAATATGTATATA [XGTACX_site468]”: the “gcPBM binding intensity (ln)” value is 8.66 ± 0.4.
The value for “TATATCATCATGTATGTACACACATACATATATTAT [CACACA_site8387]” was 9.21 ± 0.33; that for “ATAACAAAATAATAATGTACGTATAAATATAATTTA [XGTACX_site6049]” was 8.93 ± 0.38.
For “AACAATAAAAATAATTGTACAAGTCTAAAAAAAATT [XGTACX_site20]” the value was 8.79 ± 0.55.
For “ATAAAGAAAAATAGAAGTACATATATGCATGTTAAT [XGTACX_site4480]”, the “gcPBM binding intensity (ln)” value was found to be 9.12 ± 0.35.
As to “CAAAAACATACCTACACACACAATATGTATATATAA [CACACA_site3514]”, the “gcPBM binding intensity (ln)” value came out at 9.59 ± 0.26.
The value for “TAACAATAACTTTATACACACATAATATAAATATAT [CACACA_site7635]” was 8.89 ± 0.42.
For “AAATCATATTCTTATTTTATTTTTTTTATTTTTTAT [XGTACX_negctrl_site166]” the value was 8.59 ± 0.54.
The value for “GTTATATGAACTTATATACACACCATTTTTGTAAAT [CACACA_site695]” was 8.88 ± 0.4; that for “TGTAGATATTTTTGGGGTACTTTATAAAGAACTAGT [XGTACX_site5635]” was 8.5 ± 0.21; that for “AAAAAAAAAAAAAAAAGTACACATAATTGTATATGT [XGTACX_site6339]” was 8.67 ± 0.35.
For “TTACATATATTGGGGTGTACATATATTTTCCTTCAC [XGTACX_site6224]”, the “gcPBM binding intensity (ln)” value amounted to 9.06 ± 0.51.
The value for “ATGAAAAAGTGCTGGATTCTAAAGAAAAAAAAAAAA [CACACA_negctrl_site962]” was 8.54 ± 0.57; that for “AAATATTGTTTTTTATGTACTTATTTTTATTTATTT [XGTACX_site3481]” was 8.87 ± 0.47.
The value for “ATAAAATCAACAAATCAGGATGTCACGTAAATATCA [CACACA_negctrl_site1009]” was 9.14 ± 0.4.
The value for ATATTTTATATATTTGTGCACAATATTATAATATAT was 8.95 ± 0.32; that for “GAAAAACAAATATATTAACACACAAACATATAAACA [CACACA_site9315]” was 9.2 ± 0.39; that for “GTTTATTTTTTCATTTGTACACATAAATAAATATAT [XGTACX_site7752]” was 8.82 ± 0.47.
As to “GGTATATATTCTATCACACATATTTCCATGAAAATA [CACACA_site4728]”, the “gcPBM binding intensity (ln)” value is 8.74 ± 0.3.
The value for “TTAATTATATTATGCACACACAATTGGAAAAAAAAT [CACACA_site1958]” was 9.18 ± 0.47; that for “TATTTAGAAATAAATACACACATACATTTTTGTATA [CACACA_site4557]” was 8.74 ± 0.42; that for “AAAAAAAAGAAAAAAACACACAATGGAAAAAATGTA [CACACA_site3675]” was 8.93 ± 0.59.
For “AAAAATATGCTTCCATGTACTTAAAAAAAAAATTTA [XGTACX_site3617]” the value was 8.34 ± 0.47; for “ACGTTAGGCTTATTTGCACACTTGTATTAAAATTTT [CACACA_site4854]”, 8.97 ± 0.49; for “TCAACTTGATTTATATGTACACATATAAGTAATTAT [XGTACX_site1798]”, 8.63 ± 0.41.
On to “AAAAAAAATTTTCTTCTGTTGTATTTTTTATACGTT [GTGCAC_negctrl_site477]”, for which the “gcPBM binding intensity (ln)” value came out at 8.74 ± 0.51.
For “TATACAAACTATGATGCACACATATATATATGTATA [CACACA_site8327]” the value was 9.12 ± 0.3; for “TATATATAATATTTTTCACACACCATTTCCTTAAAC [CACACA_site1341]”, 9.04 ± 0.29.
The value for “TGTATCTATAATAAAACACACATTTTTAATGTGCTC [CACACA_site6788]” was 8.78 ± 0.39.
For “TTTTTTTTTTTTTTTTGTACATAATAAATGTTCTTA [XGTACX_site6754]” the value was 8.46 ± 0.38; for “TACAAAAATATATAAACACACAAATATAATATATAT [CACACA_site2942]”, 9.02 ± 0.46.
Consider “ATAAATCAAATGCACACACACAAAAAAAAAAAAAAA [CACACA_site6221]”, for which the “gcPBM binding intensity (ln)” value was determined as 9.65 ± 0.54.
The value for “CGCTCTCTTTAATATTGTACATATATATTATATATA [XGTACX_site7017]” was 8.84 ± 0.43.
With “TAATAAATGACAAATTAACACACATATATTATATAT [CACACA_site9294]”, the “gcPBM binding intensity (ln)” value came out at 8.98 ± 0.36.
For “TTATACGAAGTACGTACACACACTTATATGTTACTA [CACACA_site4019]” the value was 9.29 ± 0.45; for AATAAATAGAAAGAGGTGCTACATTATATTATTTAT, 8.68 ± 0.45.
The value for “TATTTTGTATTCATTTGTCACATATAATAGATAGGA [TGCATGCA_negctrl_site9]” was 8.49 ± 0.38.
The value for “AATATATGTATATCCACACACATATATATATATATA [CACACA_site1633]” was 9.98 ± 0.071.
In the case of “ATAGATATAACATATGCATGTAAAATATAACCACTC [TGCATGCA_site60]”, the “gcPBM binding intensity (ln)” value came to 9.17 ± 0.42.
The value for “TGTGCGGAAATAAGTGCACACATAGATATATGTATT [CACACA_site9227]” was 9.38 ± 0.44; that for “ACATATTTATATGTCTGTACAAATATGCAATTTTTT [XGTACX_site5516]” was 8.77 ± 0.47.
The value for “AATTTATAAATAATTAATTTGATAAATTATAAAGGG [GTGCAC_negctrl_site544]” was 8.45 ± 0.45; that for “TTAGATAGATTTGTACGTACTTATTATAACGTATCA [XGTACX_site5067]” was 8.69 ± 0.39.

The values are drawn from the supplement of paper PMC11417369.
